# Test results from the supplement of paper PMC8728848.
# This is one part of the list.
# Assays:
# Assay in all cases: glycan array binding signal (z-score within array); higher = stronger binding
# Settings in all cases: glycan notation: IUPAC condensed, linker removed
# Fuc(a1-2)Gal = biological target: Fuc(a1-2)Gal
# In short: (§1)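 Glycan array data came from 3228 arrays in the Consortium for Functional Glycomics database, and only arrays with an available protein sequence were kept. Glycan names were put into IUPAC-condensed notation, and columns mapping to the same glycan were averaged. The binding signal is a within-array Z-score, averaged across arrays of one protein sequence run at different concentrations or buffers and across linkers. A negative Z-score can be read as non-binding.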
# Fuc(a1-2)Gal(b1-3)GalNAc = biological target: Fuc(a1-2)Gal(b1-3)GalNAc
# In short: as §1
# [1] = biological target: Fuc(a1-2)Gal(b1-3)GalNAc(a1-3)[Fuc(a1-2)]Gal(b1-4)Glc
# In short: as §1
# [2] = biological target: Fuc(a1-2)Gal(b1-3)GalNAc(a1-3)[Fuc(a1-2)]Gal(b1-4)GlcNAc
# In short: as §1
# [3] = biological target: Fuc(a1-2)Gal(b1-3)GalNAc(b1-3)Gal
# In short: as §1
# [4] = biological target: Fuc(a1-2)Gal(b1-3)GalNAc(b1-3)Gal(a1-4)Gal(b1-4)Glc
# In short: as §1
# [5] = biological target: Fuc(a1-2)Gal(b1-3)GalNAc(b1-4)[Neu5Ac(a2-3)]Gal(b1-4)Glc
# In short: as §1
# Fuc(a1-2)Gal(b1-3)GlcNAc = biological target: Fuc(a1-2)Gal(b1-3)GlcNAc
# In short: as §1
# [6] = biological target: Fuc(a1-2)Gal(b1-3)GlcNAc(b1-2)Man(a1-3)[Fuc(a1-2)Gal(b1-3)GlcNAc(b1-2)Man(a1-6)]Man(b1-4)GlcNAc(b1-4)GlcNAc
# In short: as §1
# [7] = biological target: Fuc(a1-2)Gal(b1-3)GlcNAc(b1-2)Man(a1-3)[Fuc(a1-2)Gal(b1-3)GlcNAc(b1-2)Man(a1-6)]Man(b1-4)GlcNAc(b1-4)[Fuc(a1-6)]GlcNAc
# In short: as §1
# [8] = biological target: Fuc(a1-2)Gal(b1-3)GlcNAc(b1-3)Gal(b1-4)Glc
# In short: as §1
# [9] = biological target: Fuc(a1-2)Gal(b1-3)GlcNAc(b1-3)GalNAc
# In short: as §1
# [10] = biological target: Fuc(a1-2)Gal(b1-3)GlcNAc(b1-3)[Fuc(a1-2)Gal(b1-3)GlcNAc(b1-6)]GalNAc
# In short: as §1
# [11] = biological target: Fuc(a1-2)Gal(b1-3)GlcNAc(b1-3)[Gal(b1-4)GlcNAc(b1-6)]Gal(b1-4)Glc
# In short: as §1
# [12] = biological target: Fuc(a1-2)Gal(b1-3)GlcNAc(b1-3)[Neu5Ac(a2-6)Gal(b1-4)GlcNAc(b1-6)]Gal(b1-4)Glc
# In short: as §1
# [13] = biological target: Fuc(a1-2)Gal(b1-3)GlcNAc6S
# In short: as §1
# [14] = biological target: Fuc(a1-2)Gal(b1-3)[Fuc(a1-4)]GlcNAc
# In short: as §1
# [15] = biological target: Fuc(a1-2)Gal(b1-3)[Fuc(a1-4)]GlcNAc(b1-2)Man(a1-3)[Fuc(a1-2)Gal(b1-3)[Fuc(a1-4)]GlcNAc(b1-2)Man(a1-3)]Man(b1-4)GlcNAc(b1-4)GlcNAc
# In short: as §1
# [16] = biological target: Fuc(a1-2)Gal(b1-3)[Fuc(a1-4)]GlcNAc(b1-2)Man(a1-3)[Fuc(a1-2)Gal(b1-3)[Fuc(a1-4)]GlcNAc(b1-2)Man(a1-6)]Man(b1-4)GlcNAc(b1-4)[Fuc(a1-6)]GlcNAc(b1-4)[Fuc(a1-6)]GlcNAc
# In short: as §1
# [17] = biological target: Fuc(a1-2)Gal(b1-3)[Fuc(a1-4)]GlcNAc(b1-3)[Fuc(a1-3)[Gal(b1-4)]GlcNAc(b1-6)]Gal(b1-4)Glc
# In short: as §1
# [18] = biological target: Fuc(a1-2)Gal(b1-3)[Fuc(a1-4)]GlcNAc(b1-3)[Gal(b1-4)GlcNAc(b1-6)]Gal(b1-4)Glc
# In short: as §1
# Fuc(a1-2)Gal(b1-4)Glc = biological target: Fuc(a1-2)Gal(b1-4)Glc
# In short: as §1
# Fuc(a1-2)Gal(b1-4)Glc6S = biological target: Fuc(a1-2)Gal(b1-4)Glc6S
# In short: as §1
# Fuc(a1-2)Gal(b1-4)GlcNAc = biological target: Fuc(a1-2)Gal(b1-4)GlcNAc
# In short: as §1
# [19] = biological target: Fuc(a1-2)Gal(b1-4)GlcNAc(b1-2)Man
# In short: as §1
# [20] = biological target: Fuc(a1-2)Gal(b1-4)GlcNAc(b1-2)Man(a1-3)[Fuc(a1-2)Gal(b1-4)GlcNAc(b1-2)Man(a1-6)]Man(b1-4)GlcNAc(b1-4)GlcNAc
# In short: as §1
# [21] = biological target: Fuc(a1-2)Gal(b1-4)GlcNAc(b1-2)Man(a1-3)[Fuc(a1-2)Gal(b1-4)GlcNAc(b1-2)Man(a1-6)]Man(b1-4)GlcNAc(b1-4)[Fuc(a1-6)]GlcNAc
# In short: as §1
# [22] = biological target: Fuc(a1-2)Gal(b1-4)GlcNAc(b1-2)[Fuc(a1-2)Gal(b1-4)GlcNAc(b1-4)]Man(a1-3)[Fuc(a1-2)Gal(b1-4)GlcNAc(b1-2)Man(a1-6)]Man(b1-4)GlcNAc(b1-4)GlcNAc
# In short: as §1
# [23] = biological target: Fuc(a1-2)Gal(b1-4)GlcNAc(b1-3)Gal(b1-4)GlcNAc
# In short: as §1
# [24] = biological target: Fuc(a1-2)Gal(b1-4)GlcNAc(b1-3)Gal(b1-4)GlcNAc(b1-2)Man(a1-3)[Fuc(a1-2)Gal(b1-4)GlcNAc(b1-3)Gal(b1-4)GlcNAc(b1-2)Man(a1-6)]Man(b1-4)GlcNAc(b1-4)GlcNAc
# In short: as §1
# [25] = biological target: Fuc(a1-2)Gal(b1-4)GlcNAc(b1-3)Gal(b1-4)GlcNAc(b1-3)Gal(b1-4)GlcNAc
# In short: as §1
# [26] = biological target: Fuc(a1-2)Gal(b1-4)GlcNAc(b1-3)GalNAc
# In short: as §1
# [27] = biological target: Fuc(a1-2)Gal(b1-4)GlcNAc(b1-3)[Fuc(a1-2)Gal(b1-4)GlcNAc(b1-6)]GalNAc
# In short: as §1
# [28] = biological target: Fuc(a1-2)Gal(b1-4)GlcNAc(b1-3)[Fuc(a1-3)[Gal(b1-4)]GlcNAc(b1-6)]Gal(b1-4)Glc
# In short: as §1
# [29] = biological target: Fuc(a1-2)Gal(b1-4)GlcNAc(b1-6)GalNAc
# In short: as §1
# [30] = biological target: Fuc(a1-2)Gal(b1-4)GlcNAc6S
# In short: as §1
# [31] = biological target: Fuc(a1-2)Gal(b1-4)[Fuc(a1-3)]GlcNAc
# In short: as §1
# [32] = biological target: Fuc(a1-2)Gal(b1-4)[Fuc(a1-3)]GlcNAc(b1-2)Man(a1-3)[Fuc(a1-2)Gal(b1-4)[Fuc(a1-3)]GlcNAc(b1-2)Man(a1-6)]Man(b1-4)GlcNAc(b1-4)[Fuc(a1-6)]GlcNAc
# In short: as §1
# [33] = biological target: Fuc(a1-2)Gal(b1-4)[Fuc(a1-3)]GlcNAc(b1-2)[Fuc(a1-2)Gal(b1-4)[Fuc(a1-3)]GlcNAc(b1-4)]Man(a1-3)[Fuc(a1-2)Gal(b1-4)[Fuc(a1-3)]GlcNAc(b1-2)Man(a1-6)]Man(b1-4)GlcNAc(b1-4)GlcNAc
# In short: as §1
# [34] = biological target: Fuc(a1-2)Gal(b1-4)[Fuc(a1-3)]GlcNAc(b1-3)Gal(b1-4)[Fuc(a1-3)]GlcNAc
# In short: as §1
# [35] = biological target: Fuc(a1-2)Gal(b1-4)[Fuc(a1-3)]GlcNAc(b1-3)Gal(b1-4)[Fuc(a1-3)]GlcNAc(b1-3)Gal(b1-4)[Fuc(a1-3)]GlcNAc
# In short: as §1
# [36] = biological target: Fuc(a1-2)Gal(b1-4)[Fuc(a1-3)]GlcNAc(b1-3)GalNAc
# In short: as §1
# [37] = biological target: Fuc(a1-2)Gal(b1-4)[Fuc(a1-3)]GlcNAc(b1-3)[Neu5Ac(a2-6)Gal(b1-4)GlcNAc(b1-6)]Gal(b1-4)Glc
# In short: as §1
# [38] = biological target: Fuc(a1-2)Gal3S(b1-4)GlcNAc
# In short: as §1
# [39] = biological target: Fuc(a1-2)Gal6S(b1-3)GlcNAc
# In short: as §1
binder,measurement,setting,value
PX9937B-bvu-524-33-524 (Bacteroides vulgatus) (protein) GTAYWKNPDQFTAFNTGLHALLREKSYNFFLLGEPRADIYGDNPIGGEASQGMERLPFNTINKENVGISNYGDMYKIINQINQMIAKTTETTILTEATQNYYLGEAYGMRAYLYFHLLRSWGDVVLYLDYTEGQNLDLSNITKGVSPATEVMEQIKKDIQASENAFGSDYSFKLGRHFWSAAATQMLKGEAYLWSGRQMNGGNSDYTIAKNAFENVKKADVGLVTSSFKDIFSFENKKNKEMIFTIHNGKDEYEMWGGYYRMRLIPAQDKMVKIYCDENGNSFVGTPDAQLNGLTQLQVRREFYFKGFRNNDTRWTTSLKAVYKKDAQGVVSYFGPITYKFQGTMLEGGSTRSFLDDFPIYRYADCLLQLAMAKVLLGEDPTEEINAVRERAYGSKYFNEHKAEIAYPNDNDPEFYTDNKWMKPDNAGALEAILKERLREFMFEGKRWYDIRLLGWDYVHQYSSAEQSRLLWPIDAGTLTNNSALKQTPGYE,glycan array binding signal (z-score),Fuc(a1-2)Gal,-0.384
same,glycan array binding signal (z-score),Fuc(a1-2)Gal(b1-3)GalNAc,-0.293
same,glycan array binding signal (z-score),[1],-0.317
same,glycan array binding signal (z-score),[2],-0.51
same,glycan array binding signal (z-score),[3],-0.112
same,glycan array binding signal (z-score),[4],-0.213
same,glycan array binding signal (z-score),[5],-0.433
same,glycan array binding signal (z-score),Fuc(a1-2)Gal(b1-3)GlcNAc,-0.131
same,glycan array binding signal (z-score),[6],0.758
same,glycan array binding signal (z-score),[7],-0.232
same,glycan array binding signal (z-score),[8],-0.346
same,glycan array binding signal (z-score),[9],-0.512
same,glycan array binding signal (z-score),[10],-0.016
same,glycan array binding signal (z-score),[11],-0.284
same,glycan array binding signal (z-score),[12],-0.297
same,glycan array binding signal (z-score),[13],-0.073
same,glycan array binding signal (z-score),[14],-0.457
same,glycan array binding signal (z-score),[15],-0.154
same,glycan array binding signal (z-score),[16],0.745
same,glycan array binding signal (z-score),[17],-0.297
same,glycan array binding signal (z-score),[18],-0.48
same,glycan array binding signal (z-score),Fuc(a1-2)Gal(b1-4)Glc,-0.383
same,glycan array binding signal (z-score),Fuc(a1-2)Gal(b1-4)Glc6S,-0.234
same,glycan array binding signal (z-score),Fuc(a1-2)Gal(b1-4)GlcNAc,-0.337
same,glycan array binding signal (z-score),[19],0.117
same,glycan array binding signal (z-score),[20],-0.104
same,glycan array binding signal (z-score),[21],0.844
same,glycan array binding signal (z-score),[22],-0.07
same,glycan array binding signal (z-score),[23],-0.571
same,glycan array binding signal (z-score),[24],0.041
same,glycan array binding signal (z-score),[25],-0.357
same,glycan array binding signal (z-score),[26],-0.048
same,glycan array binding signal (z-score),[27],-0.197
same,glycan array binding signal (z-score),[28],-0.432
same,glycan array binding signal (z-score),[29],-0.136
same,glycan array binding signal (z-score),[30],-0.16
same,glycan array binding signal (z-score),[31],-0.365
same,glycan array binding signal (z-score),[32],0.361
same,glycan array binding signal (z-score),[33],-0.021
same,glycan array binding signal (z-score),[34],-0.171
same,glycan array binding signal (z-score),[35],-0.25
same,glycan array binding signal (z-score),[36],0.321
same,glycan array binding signal (z-score),[37],-0.284
same,glycan array binding signal (z-score),[38],-0.476
same,glycan array binding signal (z-score),[39],-0.476
